What was measured:
human RXFP2 = molecular target: T1, human RXFP2 (Homo sapiens, UniProt Q8WXD0); assay: INSL3-stimulated cAMP assay in HEK293 stably expressing human RXFP2
T1 sequence (Q8WXD0 1-754): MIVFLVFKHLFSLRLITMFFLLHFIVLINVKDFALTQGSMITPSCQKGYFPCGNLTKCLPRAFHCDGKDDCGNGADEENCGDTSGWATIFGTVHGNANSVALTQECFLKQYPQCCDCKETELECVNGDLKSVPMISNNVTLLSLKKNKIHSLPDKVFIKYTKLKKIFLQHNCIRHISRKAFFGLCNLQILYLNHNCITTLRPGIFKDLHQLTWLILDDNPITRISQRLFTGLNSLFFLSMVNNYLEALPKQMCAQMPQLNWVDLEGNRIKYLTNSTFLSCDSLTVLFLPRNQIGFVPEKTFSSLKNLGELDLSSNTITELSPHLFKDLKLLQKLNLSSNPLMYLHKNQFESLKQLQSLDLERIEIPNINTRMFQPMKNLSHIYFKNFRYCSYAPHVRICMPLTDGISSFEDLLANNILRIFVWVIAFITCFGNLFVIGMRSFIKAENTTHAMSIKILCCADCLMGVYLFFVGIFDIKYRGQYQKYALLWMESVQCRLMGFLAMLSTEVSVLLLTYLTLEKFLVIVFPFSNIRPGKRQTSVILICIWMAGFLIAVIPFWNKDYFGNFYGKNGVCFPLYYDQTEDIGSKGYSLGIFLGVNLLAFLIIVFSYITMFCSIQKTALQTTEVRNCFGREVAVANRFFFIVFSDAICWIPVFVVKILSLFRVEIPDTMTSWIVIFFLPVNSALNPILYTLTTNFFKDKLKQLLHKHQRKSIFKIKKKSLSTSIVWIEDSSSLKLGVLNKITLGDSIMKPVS

human LDLa-linker = molecular target: T2, human LDLa-linker (Homo sapiens, UniProt Q8WXD0); assay: Biacore S200 binding to human LDLa-linker protein
T2 construct: human LDLa linker [huRXFP2-LDLa-linker(38-105)-ratFc-8XHIS]; enterokinase cleavage site (C); rat Fc (C, cleaved yes); 8xHis (C, cleaved yes); made in house; host or cells: Expi293
T2 sequence (Q8WXD0 38-105): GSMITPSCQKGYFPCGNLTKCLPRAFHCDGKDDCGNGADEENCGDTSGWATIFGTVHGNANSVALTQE
Experimental: Goat anti Rat Fc gamma fragment specific (Jackson Immunoresearch, 112-005-071) was immobilized at 30 µg/mL to a Series S CM5 chip (Cytiva Life Sciences). In three separate runs, twenty different purified recombinant rat anti RXFP2 antibodies were then captured to the CM5 chip at a concentration of 5 µg/mL. The antibody panel was captured; rat LDLa-linker or human LDLa-linker protein was flowed as analyte at the following concentrations: 20 nM, 10 nM, 5 nM, 2.5 nM, […], and 0 nM. Antibody kinetics were evaluated using a 1:1 fit model (Biacore S200).

B1: 4B1: Human/rat cross-reactive RXFP2 monoclonal antibody, rat IgG2b backbone; requires the linker domain for binding (antibody, V domains shown)
VH: QVQLQQSGAELVRPGSSVRISCKASGYAFSNSWINWVKQRPGQGLEWMGQIYPGDGNTNYNGRFKDKATLTADKSSSTAYMQLSSLTSEDSAVYFCARDHNYWGQGTTLTVSS
VL: DVVMTQTPLTLSVTIGQPASISCKSSQSLLYSNGKTYLNWLLQRPGQSPKRLIYLVSYLDSGVPDRFTGSGSGTNFILNISRVEADDLGVYYCLQGTHFPRTFGGGTKLEIK
Q: What does the source list for B1?
A: blockade of hRXFP2 (human RXFP2; INSL3-stimulated cAMP, HEK293-hRXFP2): strong blockade; HEK293-human RXFP2 cAMP % Max Response (human RXFP2; INSL3 EC80-stimulated cAMP, stable expression, N = 2): 84.2%; IC50 (human RXFP2; read-out: HEK293-human RXFP2 cAMP IC50, INSL3 EC80-stimulated cAMP, stable expression, N = 2): 16.9 nM; cross reactivity to the human LDLa-linker (human LDLa-linker): cross reactivity

— publication PMC11162469, “Discovery of RXFP2 genetic association in resistant hypertensive men and RXFP2 antagonists for the treatment of resistant hypertension” (Scientific Reports, 2024)
